Results reported in US20250250343A1 (UNITY BIOTECHNOLOGY, published 2025).

B1: #16 (bispecific antibody, human IgG1, kappa, L234A L235A)
heavy chain: DVQLVESGGGVVRPGESLRLSCTASGFTFDSYGMSWVRQAPGKGLEWVSSINVGDNTYYADSVRGRFIISRDSSRNTLYLQMNSLTAEDTAVYYCANWNSFFDYWGLGTLVTVSSASTKGPSVFPLAPSSKSTSGGTAALGCLVKDYFPEPVTVSWNSGALTSGVHTFPAVLQSSGLYSLSSVVTVPSSSLGTQTYICNVNHKPSNTKVDKKVEPKSCDKTHTCPPCPAPEAAGGPSVFLFPPKPKDTLMISRTPEVTCVVVDVSHEDPEVKFNWYVDGVEVHNAKTKPREEQYNSTYRVVSVLTVLHQDWLNGKEYKCKVSNKALGAPIEKTISKAKGQPREPQVYTLPPSREEMTKNQVSLTCLVKGFYPSDIAVEWESNGQPENNYKTTPPVLDSDGSFFLYSKLTVDKSRWQQGNVFSCSVMHEALHNHYTQKSLSLSPGKGGGGSGGGGSGGGGSGGGGSDIQLTQSPSSLSASVGDRVTITCSASQDISNYLNWYQQKPGKAPKVLIYFTSSLHSGVPSRFSGSGSGTDFTLTISSLQPEDFATYYCQQYSTVPWTFGQGTKVEIKRTVAAPSVFIFPPSDEQLKSGTASVVCLLNNFYPREAKVQWKVDNALQSGNSQESVTEQDSKDSTYSLSSTLTLSKADYEKHKVYACEVTHQGLSSPVTKSFNRGECGGGGSGGGGSGGGGSGGGGSGGGGSEVQLVESGGGLVQPGGSLRLSCAASGYDFTHYGMNWVRQAPGKGLEWVGWINTYTGEPTYAADFKRRFTFSLDTSKSTAYLQMNSLRAEDTAVYYCAKYPYYYGTSHWYFDVWGQGTLVTVSSASTKGPSVFPLAPSSKSTSGGTAALGCLVKDYFPEPVTVSWNSGALTSGVHTFPAVLQSSGLYSLSSVVTVPSSSLGTQTYICNVNHKPSNTKVDKKVEPKSCDKTHL
light chain (kappa): EIVLTQSPGTLSLSPGEIATLSCRASQNVRSDLAWYQQKPGQAPRLLIYDASNRATGIPDRFSGSGSGTDFTLTISSLQSEDFAVYYCQQYSNWPPLTFGGGTKVEIKRTVAAPSVFIFPPSDEQLKSGTASVVCLLNNFYPREAKVQWKVDNALQSGNSQESVTEQDSKDSTYSLSSTLTLSKADYEKHKVYACEVTHQGLSSPVTKSFNRGEC
B2: #17 (bispecific antibody, human IgG1, kappa, L234A L235A)
heavy chain: DVQLVESGGGVVRPGESLRLSCTASGFTFDSYGMSWVRQAPGKGLEWVSSINVGDNTYYADSVRGRFIISRDSSRNTLYLQMNSLTAEDTAVYYCANWNSFFDYWGLGTLVTVSSASTKGPSVFPLAPSSKSTSGGTAALGCLVKDYFPEPVTVSWNSGALTSGVHTFPAVLQSSGLYSLSSVVTVPSSSLGTQTYICNVNHKPSNTKVDKKVEPKSCDKTHTCPPCPAPEAAGGPSVFLFPPKPKDTLMISRTPEVTCVVVDVSHEDPEVKFNWYVDGVEVHNAKTKPREEQYNSTYRVVSVLTVLHQDWLNGKEYKCKVSNKALGAPIEKTISKAKGQPREPQVYTLPPSREEMTKNQVSLTCLVKGFYPSDIAVEWESNGQPENNYKTTPPVLDSDGSFFLYSKLTVDKSRWQQGNVFSCSVMHEALHNHYTQKSLSLSPGKGGGGSGGGGSGGGGSGGGGSDIQLTQSPSSLSASVGDRVTITCSASQDISNYLNWYQQKPGKAPKVLIYFTSSLHSGVPSRFSGSGSGTDFTLTISSLQPEDFATYYCQQYSTVPWTFGQGTKVEIKRTVAAPSVFIFPPSDEQLKSGTASVVCLLNNFYPREAKVQWKVDNALQSGNSQESVTEQDSKDSTYSLSSTLTLSKADYEKHKVYACEVTHQGLSSPVTKSFNRGECGGGGSGGGGSGGGGSGGGGSGGGGSGGGGSEVQLVESGGGLVQPGGSLRLSCAASGYDFTHYGMNWVRQAPGKGLEWVGWINTYTGEPTYAADFKRRFTFSLDTSKSTAYLQMNSLRAEDTAVYYCAKYPYYYGTSHWYFDVWGQGTLVTVSSASTKGPSVFPLAPSSKSTSGGTAALGCLVKDYFPEPVTVSWNSGALTSGVHTFPAVLQSSGLYSLSSVVTVPSSSLGTQTYICNVNHKPSNTKVDKKVEPKSCDKTHL
light chain (kappa): B1 light chain (kappa)

Target: human Tie2 (human, UniProt Q02763 23-1124)
Test: cell-based or functional assay

Sequence of UniProt Q02763 (Q02763 23-1124): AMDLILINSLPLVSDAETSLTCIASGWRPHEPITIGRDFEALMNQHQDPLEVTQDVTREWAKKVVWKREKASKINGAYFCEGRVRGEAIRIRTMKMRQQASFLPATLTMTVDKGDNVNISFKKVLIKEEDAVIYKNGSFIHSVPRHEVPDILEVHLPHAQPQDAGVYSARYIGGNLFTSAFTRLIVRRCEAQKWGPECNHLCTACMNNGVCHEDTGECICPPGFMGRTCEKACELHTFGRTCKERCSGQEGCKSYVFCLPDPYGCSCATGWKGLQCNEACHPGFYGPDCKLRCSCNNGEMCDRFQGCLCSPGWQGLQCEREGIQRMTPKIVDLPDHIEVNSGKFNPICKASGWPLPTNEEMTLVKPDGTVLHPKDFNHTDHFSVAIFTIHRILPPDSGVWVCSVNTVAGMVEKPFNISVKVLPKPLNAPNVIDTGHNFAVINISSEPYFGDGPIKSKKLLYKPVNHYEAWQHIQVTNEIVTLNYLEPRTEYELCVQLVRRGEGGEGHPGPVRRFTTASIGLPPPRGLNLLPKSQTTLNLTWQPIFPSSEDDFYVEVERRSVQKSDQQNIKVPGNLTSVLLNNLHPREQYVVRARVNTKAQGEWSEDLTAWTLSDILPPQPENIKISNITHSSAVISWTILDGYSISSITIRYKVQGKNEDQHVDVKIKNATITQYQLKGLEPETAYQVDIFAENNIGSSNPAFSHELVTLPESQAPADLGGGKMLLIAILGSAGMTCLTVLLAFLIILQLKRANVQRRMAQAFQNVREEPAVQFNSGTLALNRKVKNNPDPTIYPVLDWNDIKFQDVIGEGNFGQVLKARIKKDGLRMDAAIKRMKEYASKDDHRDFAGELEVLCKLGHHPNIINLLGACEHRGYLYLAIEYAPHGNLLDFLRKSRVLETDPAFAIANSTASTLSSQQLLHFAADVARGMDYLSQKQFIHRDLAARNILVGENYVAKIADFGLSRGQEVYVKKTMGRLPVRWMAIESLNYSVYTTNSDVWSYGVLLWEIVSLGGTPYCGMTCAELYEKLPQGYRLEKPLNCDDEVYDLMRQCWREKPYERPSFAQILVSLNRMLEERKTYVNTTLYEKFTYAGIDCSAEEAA

Binder | EC50, pTie2 in HUVEC (in vitro potency; the sheet's head prints no unit, EC50 in nM per legend paragraph 17) [nM]
B1 | 7.06
B2 | 5.03
